Values joined by “and” are separate entries in the source; they are usually repeats but may differ in a detail not shown here. Equal entries are not always repeated.

Assay [1] addresses T1, cell surface Notch3 on OVCAR3 cells (Homo sapiens, UniProt Q9UM47).
T1 construct: Notch3 endogenously expressing cells MDA-MB-468, HCC2429 and OVCAR3; endogenous in cells; host or cells: OVCAR3
The assay is described as follows: Cell-based ELISA, OVCAR3 cells. As to conditions: Table 29; LB = lacked binding. Background: In an ELISA, binding on a coated surface is turned into a signal by an enzyme label.

Assay [2] has as its target T2, cell surface Notch3 on HCC2429 cells (Homo sapiens, UniProt Q9UM47).
T2 construct: endogenous Notch3 expressing cell lines, HCC2429 and MDA-MB-468; endogenous in cells; host or cells: HCC2429
The assay is described as follows: Cell-based ELISA, HCC2429 cells. The following applies: Table 29; LB = lacked binding. As for the experimental part: (§1) Unconjugated anti-Notch3 antibodies, anti-Notch3 ADCs and a negative control antibody (huNeg8.8) were screened for cell surface binding activity to Notch3 expressing cell lines in a cell-based ELISA. Over-expressing Notch3 cell line, U2OS/hNotch3, and endogenous Notch3 expressing cell lines, HCC2429 and MDA-MB-468, were plated at 50,000, 200,000 and 100,000 cells/well, respectively, in 96 well plates (white opaque, BD/VWR) the day before ELISA assay. On the day of the ELISA, culture media was removed from wells and serially diluted (1:3 in DPBS with calcium chloride and magnesium chloride (Ca/Mg) and 1% BSA) antibody and ADC solutions were applied to the plate. Plates were incubated at room temperature for 2 hours before washed with DPBS with Ca/Mg and 1% BSA. HRP-conjugated secondary antibody was then applied and incubated with cells for 1 hour. Plates were washed with DPBS with Ca/Mg and 1% BSA before being developed with Pico-Chemiluminescent developing kit (Thermal Scientific), and chemiluminescence measurements were performed per manufacturer's instructions. Data plotting and analyses were performed with Microsoft Excel and Graphpad-Prism software.
Unconjugated cysteine mutant humanized anti-Notch3 antibodies were screened for cell surface binding activity to Notch3 expressing cell lines in a cell-based ELISA, as described in previous Examples. […] For the control antibody that lacked binding (LB), EC50 values were not generated as indicated.

Assay [3] has as its target T3, full-length human Notch3 expressed on the cell surface of U2OS/hNotch3 cells (Homo sapiens, UniProt Q9UM47).
T3 construct: U-2 OS cells stably over-expressing human or mouse full length Notch3 protein on cell surface; expressed in transfected cells; host or cells: U-2 OS (human osteosarcoma)
Kind of assay: Cell-based ELISA, U2OS/hNotch3 cells. As to conditions: Table 29; two value columns; LB = lacked binding. Here is the method: Humanized hu28 and hu75, and rat-human chimeric, ch28 and ch75, anti-Notch3 antibodies were screened for cell surface Notch3 binding in a cell-based ELISA. U-2 OS cells stably over-expressing human or mouse full length Notch3 protein on cell surface (hereinafter U2OS/hNotch3 and U2OS/mNotch3, respectively) were plated at 50,000 cells/well in 96 well plates (white opaque, BD/VWR) the day before ELISA assay. On the day of the ELISA, culture media was removed from wells and serially diluted (1:3 in blocking buffer) antibody solutions were applied to the plate. Plates were incubated at room temperature for 2 hours before being washed with PBS-Mg/Ca. HRP-conjugated secondary antibody was then applied and incubated with cells for 1 hour as described above for recombinant protein ELISA. Plates were washed with PBS-Mg/Ca before being developed with Pico-Chemiluminescent developing kit (Thermal Scientific), and chemiluminescence measurements were performed per manufacturer's instructions. Data plotting and analyses were performed with Microsoft Excel and Graphpad-Prism software.
as §1, with “Plates were washed with DPBS with Ca/Mg and 1% BSA before being developed with Pico-Chemiluminescent developing kit (Thermal Scientific), and chemiluminescence measurements were performed per manufacturer's instructions. Data plotting and analyses were performed with Microsoft Excel and Graphpad-Prism software.” left out

T3 sequence (Q9UM47 40-2321): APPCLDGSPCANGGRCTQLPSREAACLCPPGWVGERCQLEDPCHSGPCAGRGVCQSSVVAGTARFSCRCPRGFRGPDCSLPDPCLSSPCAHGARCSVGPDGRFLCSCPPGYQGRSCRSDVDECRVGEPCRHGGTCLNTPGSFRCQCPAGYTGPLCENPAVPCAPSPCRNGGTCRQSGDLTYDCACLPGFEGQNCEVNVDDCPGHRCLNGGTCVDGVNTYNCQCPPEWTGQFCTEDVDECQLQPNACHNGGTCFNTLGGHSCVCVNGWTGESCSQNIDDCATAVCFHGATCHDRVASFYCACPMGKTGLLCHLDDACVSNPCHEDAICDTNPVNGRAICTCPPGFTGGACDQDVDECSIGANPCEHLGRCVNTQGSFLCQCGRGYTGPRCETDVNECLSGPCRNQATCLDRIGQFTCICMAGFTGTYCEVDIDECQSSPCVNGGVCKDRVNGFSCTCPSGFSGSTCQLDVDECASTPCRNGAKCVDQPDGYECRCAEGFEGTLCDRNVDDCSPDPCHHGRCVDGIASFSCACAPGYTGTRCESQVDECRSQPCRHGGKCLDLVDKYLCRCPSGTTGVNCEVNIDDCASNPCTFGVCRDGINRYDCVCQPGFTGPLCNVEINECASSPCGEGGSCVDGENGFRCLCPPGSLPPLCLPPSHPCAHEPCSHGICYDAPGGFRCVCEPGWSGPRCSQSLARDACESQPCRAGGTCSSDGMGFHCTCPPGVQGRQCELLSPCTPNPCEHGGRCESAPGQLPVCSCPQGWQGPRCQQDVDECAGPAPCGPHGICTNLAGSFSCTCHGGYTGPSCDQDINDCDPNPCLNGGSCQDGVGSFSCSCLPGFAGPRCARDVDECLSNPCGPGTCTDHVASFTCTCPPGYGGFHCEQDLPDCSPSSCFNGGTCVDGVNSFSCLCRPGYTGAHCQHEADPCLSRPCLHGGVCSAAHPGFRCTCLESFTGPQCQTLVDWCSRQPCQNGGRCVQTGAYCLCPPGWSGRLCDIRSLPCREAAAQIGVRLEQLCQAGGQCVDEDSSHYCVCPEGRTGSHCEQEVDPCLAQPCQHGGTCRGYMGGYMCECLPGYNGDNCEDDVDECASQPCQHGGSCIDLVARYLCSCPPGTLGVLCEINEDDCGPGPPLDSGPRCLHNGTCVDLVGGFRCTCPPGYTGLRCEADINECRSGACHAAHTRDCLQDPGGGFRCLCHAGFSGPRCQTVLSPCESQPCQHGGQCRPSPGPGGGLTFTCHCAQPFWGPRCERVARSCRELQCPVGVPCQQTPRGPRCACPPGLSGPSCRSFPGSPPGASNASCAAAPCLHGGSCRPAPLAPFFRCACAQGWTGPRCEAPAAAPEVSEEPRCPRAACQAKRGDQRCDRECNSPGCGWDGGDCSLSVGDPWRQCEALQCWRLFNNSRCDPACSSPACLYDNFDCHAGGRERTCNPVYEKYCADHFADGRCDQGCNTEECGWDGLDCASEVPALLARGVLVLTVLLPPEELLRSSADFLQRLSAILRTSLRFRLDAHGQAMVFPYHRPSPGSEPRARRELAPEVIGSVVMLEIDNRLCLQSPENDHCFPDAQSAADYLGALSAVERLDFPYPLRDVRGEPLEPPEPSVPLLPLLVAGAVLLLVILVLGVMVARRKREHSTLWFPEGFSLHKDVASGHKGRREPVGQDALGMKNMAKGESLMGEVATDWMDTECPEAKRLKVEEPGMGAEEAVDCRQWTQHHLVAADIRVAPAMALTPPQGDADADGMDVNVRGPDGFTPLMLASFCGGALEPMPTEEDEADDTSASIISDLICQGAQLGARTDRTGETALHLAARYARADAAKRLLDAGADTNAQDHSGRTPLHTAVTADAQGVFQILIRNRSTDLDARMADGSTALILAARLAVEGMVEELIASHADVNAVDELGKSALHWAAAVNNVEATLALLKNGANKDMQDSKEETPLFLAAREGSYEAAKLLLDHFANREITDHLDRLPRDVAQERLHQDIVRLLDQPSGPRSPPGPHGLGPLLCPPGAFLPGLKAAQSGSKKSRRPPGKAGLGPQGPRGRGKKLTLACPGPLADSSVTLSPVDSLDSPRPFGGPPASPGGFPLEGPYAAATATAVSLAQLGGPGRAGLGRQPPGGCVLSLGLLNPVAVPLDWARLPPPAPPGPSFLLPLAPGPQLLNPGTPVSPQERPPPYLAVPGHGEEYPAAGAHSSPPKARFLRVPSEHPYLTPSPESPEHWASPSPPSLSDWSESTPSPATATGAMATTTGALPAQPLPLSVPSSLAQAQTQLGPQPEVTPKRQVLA
T1 sequence (Q9UM47 40-2321): as above
T2 sequence (Q9UM47 40-2321): as above

B1: hu28-(L443C/K392C): hu28 with cysteine substitutions L443C and K392C in the heavy chain constant domain (antibody)
heavy: EVQLVESGGGLVQPGGSLRLSCAASGFTFRDYGMTWVRQAPGKGLEWVAYISSGSNYIYYAEAVKGRFTISRDNAKNSLYLQMNSLRAEDTAVYYCARRGPFVLDAWGQGTLVTVSSASTKGPSVFPLAPSSKSTSGGTAALGCLVKDYFPEPVTVSWNSGALTSGVHTFPAVLQSSGLYSLSSVVTVPSSSLGTQTYICNVNHKPSNTKVDKKV[letters of human IgG1 Fc with K392C L443C (EU numbers) omitted]
light: DIQMTQSPSSLSASVGDRVTITCKASQSINRYLHWYQQKPGKAPKLLIYNANGLQTGVPSRFSGSGSGTDFTLTISSLQPEDFATYYCLQHNTWPDTFGGGTKVEIKRTVAAPSVFIFPPSDEQLKSGTASVVCLLNNFYPREAKVQWKVDNALQSGNSQESVTEQDSKDSTYSLSSTLTLSKADYEKHKVYACEVTHQGLSSPVTKSFNRGEC
Turning to B1, the half-maximal effective concentration (EC50) in assay [1] was 0.31 nM; in assay [2], 0.11 nM; in assay [3] it was 0.31 nM and 0.29 nM.

A word on the EC50: it is the concentration needed to bring the measured effect to its halfway point. A higher EC50 goes with lower potency in that assay.

For the origin of these results see patent US9433687B2, “Anti-Notch3 antibodies and antibody-drug conjugates” (Pfizer Inc., priority 2012, dated 2016).
